Reference: PubChem BioAssay AID1458 (National Center for Advancing Translational Sciences (NCATS), 2008)
Hit rate of the full screen: of about 210,000 compounds, about 5,900 (2.8%) were called active. This list was built around the results that the source calls inconclusive (neither active nor inactive); the mix of calls is not that of the screen. Calls come from the whole dose curve; as a rule, active = well fitted activation curve with a large enough effect; inconclusive = small, poorly fitted or top-dose-only effect; inactive = no such curve, though single readings can be large or run the other way. Potencies of inconclusive entries are doubtful fits and often do not repeat.

Assay: qHTS Assay for Enhancers of SMN2 Splice Variant Expression; note: nearly all actives have a fitted effect of over 55% in size
Conditions: HEK293 SMN2-luciferase splicing reporter, luminescence, 30-36 h; series mostly up to 46.1 µM
Summary of the method: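 qHTS luciferase splicing reporter: luminescence rises when SMN2 exon 7 is included in transfected HEK293 cells. Compound exposure lasted 30-36 h at 37C, with 4.5 mM final sodium butyrate as control, followed by a ONE-Glo read.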
Potency is the fitted concentration of half-maximal effect; tags give direction and shape of the fitted curve.

SMILES | Potency
COC(=O)c1ccccc1NC(=O)c1cnc(Nc2ccc(OC)cc2)c2ccccc12 | inactive
CCOC(=O)N1CCN(C(=O)c2cn(-c3ccc(C)c(C)c3)c(=O)c3ccccc23)CC1 | inconclusive: 0.02 µM [activator, full curve]
COc1ccc(Nc2nc(N)nc(SCc3nnc(C)s3)n2)cc1 | inconclusive: 15.8 µM [activator, partial curve]
O=C1c2ccccc2C(=O)N1c1cccc(-c2csc(Nc3ccc4c(c3)OCO4)n2)c1 | inconclusive: 35.5 µM [activator, single point]
CCOC(=O)C(C)Sc1nc2c([nH]c3ccccc32)c(=O)n1C (centres undefined) | inconclusive: 17.8 µM [activator, partial curve, poor fit]
COC(=O)c1ccc(-c2noc(CN(C)CC3CCCCO3)n2)cc1 (centres undefined) | active: 10 µM
C/C(=C\C(=O)c1ccccc1)Nc1cccc(O)c1 | inconclusive: 35.5 µM [activator, single point]
O=C1CN2C(=N1)N(Cc1ccccc1)c1ccccc12 | inconclusive: 12.6 µM [activator, partial curve, poor fit]
COc1ccccc1NC(=S)NCC1CCCCC1 | inconclusive: 4.47 µM [activator, partial curve, poor fit]
COc1ccc(-n2nc(C(=O)N3CCN(c4ccccc4OC)CC3)c3c4ccccc4n(C)c3c2=O)cc1Cl | inconclusive: 0.005 µM [activator, full curve, poor fit]
CCCN(CCC)C(=O)C1c2ccccc2Oc2ccccc21 | inconclusive: 3.55 µM [activator, single point]
Nc1cc(C(=O)OCC(=O)NCc2ccco2)ccc1Cl | inactive
CCCn1c(NCc2cccc(OC)c2O)nc2ccccc21 | inactive
COc1ccc(-c2c(C)nn(-c3ccccc3)c2N)cc1OC | inconclusive: 0.501 µM [activator, full curve, poor fit]
CCOC(=O)c1ccc(-n2c(C)ccc2C)cc1 | inactive
CCSc1nnc(NC(=O)c2cc(=O)c3cc(C)c(C)cc3o2)s1 | inconclusive: 35.5 µM [activator, single point]
Cc1ccc(NC(=O)c2oc3ccccc3c2NC(=O)c2ccc3c(c2)OCO3)cc1 | inactive
Cc1ccc(NC(=S)NNC(=O)c2nn(C)c(C)c2Cl)cc1 | inconclusive: 31.6 µM [activator, single point]
CC(C)C(=O)Nc1ccc(C(=O)c2ccccc2)cc1 | inconclusive: 1 µM [activator, partial curve, poor fit]
